Marks after values point to notes of the source that are not given here.
Experiments:
Alkaligenes sp. B-689 = experiment: Agar diffusion assay
[1] = system: Plasmodium falciparum 3D7
[2] = system: Enterobacter agglomerans B-679; experiment: Agar diffusion assay
Alkaligenes sp. B-667 = experiment: Sensitivity of strains: suppression of growth; format: cell-based; settings: Compound (1) 1.0%; antibiotics disc method
[3] = system: β-haemolytic streptococcus B-624; experiment: Agar diffusion assay
[4] = system: Klebsiella pneumoniae M-248; experiment: Sensitivity of strains: suppression of growth; format: cell-based; settings: Compound (1) 1.0%; antibiotics disc method
[5] = system: Enterobacter aerogenes B-679; experiment: Sensitivity of strains: suppression of growth; format: cell-based; settings: Compound (1) 1.0%; antibiotics disc method
[6] = system: Staphylococcus aureus M-12159; experiment: Sensitivity of strains: suppression of growth; format: cell-based; settings: Compound (1) 1.0%; antibiotics disc method
[7] = system: Trichophyton interdigitale; experiment: Impregnated agar serial double dilutions; settings: meat peptone agar
[8] = system: Staphylococci epidermidis D-513; experiment: Sensitivity of strains: suppression of growth; format: cell-based; settings: Compound (1) 1.0%; antibiotics disc method

Q: What does the source list for `C/C(=C\c1ccc2c(c1)OCO2)[N+](=O)[O-]` [Compound (1)]?
A: Diameter of zone of Growth inhibition (Alkaligenes sp. B-689; Concentration in disc 0.1%): 36# mm; Diameter of zone of Growth inhibition (Alkaligenes sp. B-689; Concentration in disc 1.0%): 38# mm; Diameter of zone of Growth inhibition (Alkaligenes sp. B-689; Concentration in disc 2.0%): 40# mm; effect on red blood cell morphology [1]: no detectable adverse effect; effect on parasite growth and replication ([1]; 5, 10 and 25 μg/mL, up to 72 hours of culture): concentration-dependent inhibitory effect; Diameter of zone of Growth inhibition ([2]; Concentration in disc 0.1%): 25# mm; Diameter of zone of Growth inhibition ([2]; Concentration in disc 1.0%): 30# mm; Diameter of zone of Growth inhibition ([2]; Concentration in disc 2.0%): 33# mm; Suppression of Growth (+/−) (Alkaligenes sp. B-667): +; Diameter of zone of Growth inhibition ([3]; Concentration in disc 0.1%): 31# mm; Diameter of zone of Growth inhibition ([3]; Concentration in disc 1.0%): 32# mm; Diameter of zone of Growth inhibition ([3]; Concentration in disc 2.0%): 31# mm; Suppression of Growth (+/−) [4]: +; Suppression of Growth (+/−) [5]: +; Suppression of Growth (+/−) [6]: +; Minimal % Compound (1) giving complete inhibition of test culture [7]: 0.25%; Suppression of Growth (+/−) [8]: +

— patent publication US20150258059A1, “ANTIMICROBIAL AND RADIOPROTECTIVE COMPOUNDS” (BioDiem, Ltd, priority 2001, published 2015)
